The record followed here is article PMC4336329 (PLoS ONE, 2015).

The campaign covered roughly 310,000 compounds. About 14,000 (4.5%) showed an effect of 50% or more. The effect is printed as a negative number. Some of the results follow.
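Note: peak tail current of the secondary pulse compared with the same well before compound.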

The target of this experiment is human ether-à-go-go-related gene (hERG) potassium channel (human, UniProt Q12809). Put plainly: primary screen, population patch clamp on CHO cells stably expressing hERG.
Chain of human ether-à-go-go-related gene (hERG) potassium channel (Q12809 whole entry, looked up): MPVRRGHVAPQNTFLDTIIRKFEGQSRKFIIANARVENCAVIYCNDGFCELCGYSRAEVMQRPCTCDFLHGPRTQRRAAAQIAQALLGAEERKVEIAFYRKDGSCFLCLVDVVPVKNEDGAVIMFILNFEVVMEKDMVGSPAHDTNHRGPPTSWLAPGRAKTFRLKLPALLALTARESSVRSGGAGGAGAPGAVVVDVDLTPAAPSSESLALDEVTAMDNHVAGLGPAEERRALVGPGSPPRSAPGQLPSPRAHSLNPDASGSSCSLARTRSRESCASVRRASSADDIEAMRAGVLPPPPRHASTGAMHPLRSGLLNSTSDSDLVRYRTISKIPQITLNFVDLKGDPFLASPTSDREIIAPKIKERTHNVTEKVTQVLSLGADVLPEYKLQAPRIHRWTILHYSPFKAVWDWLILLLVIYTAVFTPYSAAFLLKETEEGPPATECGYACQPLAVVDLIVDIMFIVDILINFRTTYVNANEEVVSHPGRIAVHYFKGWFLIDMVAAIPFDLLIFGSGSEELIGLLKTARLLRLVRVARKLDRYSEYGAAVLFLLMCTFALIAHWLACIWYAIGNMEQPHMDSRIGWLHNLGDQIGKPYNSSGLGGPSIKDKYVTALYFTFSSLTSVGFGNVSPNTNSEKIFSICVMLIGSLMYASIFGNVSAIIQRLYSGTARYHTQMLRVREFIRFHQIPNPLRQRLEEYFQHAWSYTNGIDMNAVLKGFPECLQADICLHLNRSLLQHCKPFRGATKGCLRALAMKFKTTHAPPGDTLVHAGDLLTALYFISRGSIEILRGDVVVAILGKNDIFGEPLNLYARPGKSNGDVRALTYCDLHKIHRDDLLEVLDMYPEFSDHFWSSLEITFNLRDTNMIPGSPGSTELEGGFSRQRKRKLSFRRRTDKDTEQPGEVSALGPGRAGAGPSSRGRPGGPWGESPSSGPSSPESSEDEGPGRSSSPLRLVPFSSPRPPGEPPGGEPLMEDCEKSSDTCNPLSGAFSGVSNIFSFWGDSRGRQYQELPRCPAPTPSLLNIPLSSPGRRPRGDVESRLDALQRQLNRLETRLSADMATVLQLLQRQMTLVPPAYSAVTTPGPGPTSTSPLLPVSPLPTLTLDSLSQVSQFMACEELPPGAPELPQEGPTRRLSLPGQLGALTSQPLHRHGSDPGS
Consider `CCCCn1c(-c2csc(CC)c2)n[nH]c1=S`, for which the “hERG current change (%, negative = inhibition) at 10uM” value came out at 11.5%.

As for `Cn1c(SCC(=O)NCc2ccccc2)nc2c([nH]c3ccccc32)c1=O`, the “hERG current change (%, negative = inhibition) at 10uM” value was 8.94%.

As to `O=C(O)C1CCN(Cc2cnn(-c3ccccc3)c2-n2cccc2)CC1`, the “hERG current change (%, negative = inhibition) at 10uM” value was -21%.

Regarding `COc1ccc(CCNC(=O)C2CC(c3ccccc3[N+](=O)[O-])=NO2)cc1` (centres unmarked), the “hERG current change (%, negative = inhibition) at 10uM” value is on record as -2.82%.

As for `CCc1cccc2sc(N3CCN(C(=O)c4ccc([N+](=O)[O-])o4)CC3)nc12`, the “hERG current change (%, negative = inhibition) at 10uM” value is given as -44.9%.

As to `CNC(=O)C(Sc1ccccc1)c1ccccc1` (centres unmarked), the “hERG current change (%, negative = inhibition) at 10uM” value is on record as 9.71%.

In the case of `Cc1ccccc1C(=O)Oc1ccc(-c2csnn2)cc1`, the “hERG current change (%, negative = inhibition) at 10uM” value is 16%.

On to `O=C(NCC1CCCN(Cc2nccs2)C1)c1cccc2ccccc12` (centres unmarked), for which the “hERG current change (%, negative = inhibition) at 10uM” value is recorded as 0.477%.

With `COC(=O)c1cc(S(=O)(=O)N(C)c2ccc(C)c(C)c2)c[nH]1`, the “hERG current change (%, negative = inhibition) at 10uM” value is given as -20.2%.

As to `O=C(Cc1cccs1)N1CCN=C1SCc1ccccc1F`, the “hERG current change (%, negative = inhibition) at 10uM” value is listed as -11.5%.

In the case of `CN/C(=C/[N+](=O)[O-])NCCSCc1csc(CN(C)C)n1`, the “hERG current change (%, negative = inhibition) at 10uM” value is reported as -11.8%.

Turning to `CCCCc1nc(SCC(=O)Nc2nnc(C(C)C)s2)n[nH]1`, the “hERG current change (%, negative = inhibition) at 10uM” value was 8.79%.

In the case of `O=C(NNC(=S)NC(=O)c1ccc(Br)cc1)c1cccc([N+](=O)[O-])c1`, the “hERG current change (%, negative = inhibition) at 10uM” value was found to be 13.4%.

In the case of `CSc1ccccc1NC(=O)COc1ccc(Cl)cc1C`, the “hERG current change (%, negative = inhibition) at 10uM” value is -1.99%.

As to `C#CC(C)(CC)NC(=O)Cn1nnc(-c2ccc(S(C)(=O)=O)cc2)n1` (centres unmarked), the “hERG current change (%, negative = inhibition) at 10uM” value worked out at 1.02%.

As for `Cc1cc(N2CCCCCC2)n2nc(C)c(-c3ccccc3)c2n1`, the “hERG current change (%, negative = inhibition) at 10uM” value amounted to 22.9%.

As to `C=CCNC(=S)NNC(=O)C(CCCC)CC(C)(C)O` (centres unmarked), the “hERG current change (%, negative = inhibition) at 10uM” value is listed as 7.54%.

For `O=C(CSc1n[nH]c(-c2ccccn2)n1)Nc1ccc(Cl)cc1`, the “hERG current change (%, negative = inhibition) at 10uM” value is reported as -3.48%.

In the case of `Cc1c(Cl)cnc(NC(=O)COC(=O)[C@H](C)NC(=O)c2ccccc2)c1Cl`, the “hERG current change (%, negative = inhibition) at 10uM” value is listed as -22.5%.

On to `COC(=O)CSc1cc(C(F)(F)F)nc(-c2ccccn2)n1`, for which the “hERG current change (%, negative = inhibition) at 10uM” value is recorded as -0.703%.

`CCOC(=O)C1=C(C)NC(C)=C(C(=O)OCC)C1C(=O)OCC(=O)N1CCCCC1CC` (centres unmarked): the “hERG current change (%, negative = inhibition) at 10uM” value was 2.53%.

`COCCCNC(=S)Nc1cc2oc3ccccc3c2cc1OC`: the “hERG current change (%, negative = inhibition) at 10uM” value is reported as 6.08%.

For the compound `C(=C\c1ccccn1)/c1ccncc1`, the “hERG current change (%, negative = inhibition) at 10uM” value is recorded as 18.2%.

Consider `Cc1nn(CC(O)Cn2c3c(c4ccccc42)CCN(C)C3=O)c(C)c1Br` (centres unmarked), for which the “hERG current change (%, negative = inhibition) at 10uM” value is recorded as -17.5%.

Turning to `CC(C)(C)c1ccc(/C=C(\C#N)C(=O)NCCN2CCOCC2)cc1`, the “hERG current change (%, negative = inhibition) at 10uM” value is -19.5%.

`Cn1c(=O)cc(OCC(=O)NCCC2=CCCCC2)c2ccccc21`: the “hERG current change (%, negative = inhibition) at 10uM” value is recorded as -10.3%.

Regarding `O=C(NC12CC3CC(CC(C3)C1)C2)N1CC2Cc3cccc(=O)n3C(C2)C1` (centres unmarked), the “hERG current change (%, negative = inhibition) at 10uM” value worked out at 5.29%.

Take `Cc1ccc(NC(=O)COC(=O)CCc2ccccc2)c(Cl)c1`: the “hERG current change (%, negative = inhibition) at 10uM” value is 27.1%.

Turning to `CCOC(=O)c1cc(/C(C)=N/OC(=O)c2ccc(C(C)(C)C)cc2)on1`, the “hERG current change (%, negative = inhibition) at 10uM” value was 14.7%.

With `COc1ccc(Nc2cc(Cl)nc(N)n2)cc1`, the “hERG current change (%, negative = inhibition) at 10uM” value was 20%.

As to `CCCCNC(=O)CN1C(=O)NC2(CCCc3ccccc32)C1=O` (centres unmarked), the “hERG current change (%, negative = inhibition) at 10uM” value came out at 0.44%.

Regarding `C/C(=N\NC(=O)c1nnn(-c2nonc2N)c1-c1ccc2c(c1)OCO2)c1cccs1`, the “hERG current change (%, negative = inhibition) at 10uM” value stood at 5.22%.

`CCc1cc(C(=O)O)c(NC(=O)/C=C/c2ccc(OC)cc2)s1`: the “hERG current change (%, negative = inhibition) at 10uM” value is 11.8%.

Take `CCOC(=O)c1cc([N+](=O)[O-])sc1NC(=O)CC`: the “hERG current change (%, negative = inhibition) at 10uM” value is recorded as -18.9%.

Turning to `CCOC(=O)Cn1c(=O)oc2cc(S(=O)(=O)N3CCCC(C(=O)OCC)C3)ccc21` (centres unmarked), the “hERG current change (%, negative = inhibition) at 10uM” value is given as -16%.

Take `CC(NS(=O)(=O)c1ccc(F)cc1)C(c1cccs1)N1CCOCC1` (centres unmarked): the “hERG current change (%, negative = inhibition) at 10uM” value was -5.18%.

In the case of `CCOc1cc(C2C(C(C)=O)=C(O)C(=O)N2CCc2c[nH]c3ccccc23)ccc1O` (centres unmarked), the “hERG current change (%, negative = inhibition) at 10uM” value turned out to be 15.4%.

On to `O=[N+]([O-])c1cccc(Nc2c3ccccc3nc3ccccc23)c1`, for which the “hERG current change (%, negative = inhibition) at 10uM” value was -11.5%.

On to `O=Cc1ccc(N2CCCCCC2)cc1`, for which the “hERG current change (%, negative = inhibition) at 10uM” value is on record as -0.897%.

`CCC(C)(C)NC(=O)CN(C(=O)CNS(=O)(=O)c1ccc(C)cc1)c1ccc2c(c1)OCCO2`: the “hERG current change (%, negative = inhibition) at 10uM” value is -5.52%.

In the case of `Cn1cnc(C(F)(F)F)c1-c1ccc([N+](=O)[O-])cc1`, the “hERG current change (%, negative = inhibition) at 10uM” value was -20.3%.

Regarding `CCC(=NCCN1CCOCC1)c1c(O)n(C2CCCCC2)c(=O)[nH]c1=O`, the “hERG current change (%, negative = inhibition) at 10uM” value is reported as -6.76%.

Regarding `COc1ccccc1/C(C)=N/NC(=O)c1nnn(-c2nonc2N)c1C(C)C`, the “hERG current change (%, negative = inhibition) at 10uM” value was -7.98%.

Take `Cc1ccc2[nH]c(CCN(C)C)c(CN3CCOCC3)c2c1`: the “hERG current change (%, negative = inhibition) at 10uM” value is listed as -2.2%.

Turning to `CCN(CC)C(=O)c1sc2nc(-c3ccccn3)[nH]c(=O)c2c1C`, the “hERG current change (%, negative = inhibition) at 10uM” value was -2.72%.

Consider `CC(=O)c1cc(C#N)c(N2CCCCC2)nc1C`, for which the “hERG current change (%, negative = inhibition) at 10uM” value is given as -3.14%.

Regarding `COc1cccc(CN2CCN(Cc3[nH]c4ccccc4c3C)CC2CCO)c1` (centres unmarked), the “hERG current change (%, negative = inhibition) at 10uM” value is on record as -60.5%.

Take `COc1ccccc1N1CCN(CCCNC(=O)Cn2ncc3c([nH]c4ccccc43)c2=O)CC1`: the “hERG current change (%, negative = inhibition) at 10uM” value was -68.6%.

Turning to `CC(C)c1ccc(S(=O)(=O)N2CCN(CC(=O)Nc3ccc(Cl)cc3F)CC2)cc1`, the “hERG current change (%, negative = inhibition) at 10uM” value was -15.9%.

Consider `COC(=O)c1ccccc1S(=O)(=O)N(CCCO)Cc1cc2c(C)ccc(C)c2[nH]c1=O`, for which the “hERG current change (%, negative = inhibition) at 10uM” value is on record as -14.6%.

Regarding `Cn1c(CN2CCN(S(C)(=O)=O)CC2)nc2cc([N+](=O)[O-])ccc21`, the “hERG current change (%, negative = inhibition) at 10uM” value is given as -0.37%.

As for `Cc1ccc(C)c(NC(=O)CSc2ccc(-c3cccs3)nn2)c1`, the “hERG current change (%, negative = inhibition) at 10uM” value is reported as 0.0898%.

Turning to `CC(C)CN(C(=O)COC(=O)c1ccccc1SCC(=O)NC1CCCCCC1)C1CCS(=O)(=O)C1` (centres unmarked), the “hERG current change (%, negative = inhibition) at 10uM” value is reported as -0.144%.

Take `Cc1ccc(-n2nc3c(=O)n(CCCC(=O)NCCN4CCN(C)CC4)nc(C)c3c2C)cc1`: the “hERG current change (%, negative = inhibition) at 10uM” value is given as 16.8%.

Take `Cc1ccnc(NC(=O)c2cccc(S(=O)(=O)N3CCCc4ccccc43)c2)c1`: the “hERG current change (%, negative = inhibition) at 10uM” value is given as -1.95%.

As for `CCCOc1ccccc1-n1sc2c(c1=S)-c1cc(OC)cc3c1N(C(=O)C3=O)C2(C)C`, the “hERG current change (%, negative = inhibition) at 10uM” value was determined as 18.5%.
